Results taken from PMC4336329 (PLoS ONE, 2015).
The campaign covered roughly 310,000 compounds. About 2,200 (0.71%) showed an effect of 50% or more. Effects have a minus sign here. The list shows a part of the results.

Target: human ether-à-go-go-related gene (hERG) potassium channel (human, UniProt Q12809)
Experiment: primary screen, population patch clamp on CHO cells stably expressing hERG

Chain of human ether-à-go-go-related gene (hERG) potassium channel (Q12809 whole entry, looked up): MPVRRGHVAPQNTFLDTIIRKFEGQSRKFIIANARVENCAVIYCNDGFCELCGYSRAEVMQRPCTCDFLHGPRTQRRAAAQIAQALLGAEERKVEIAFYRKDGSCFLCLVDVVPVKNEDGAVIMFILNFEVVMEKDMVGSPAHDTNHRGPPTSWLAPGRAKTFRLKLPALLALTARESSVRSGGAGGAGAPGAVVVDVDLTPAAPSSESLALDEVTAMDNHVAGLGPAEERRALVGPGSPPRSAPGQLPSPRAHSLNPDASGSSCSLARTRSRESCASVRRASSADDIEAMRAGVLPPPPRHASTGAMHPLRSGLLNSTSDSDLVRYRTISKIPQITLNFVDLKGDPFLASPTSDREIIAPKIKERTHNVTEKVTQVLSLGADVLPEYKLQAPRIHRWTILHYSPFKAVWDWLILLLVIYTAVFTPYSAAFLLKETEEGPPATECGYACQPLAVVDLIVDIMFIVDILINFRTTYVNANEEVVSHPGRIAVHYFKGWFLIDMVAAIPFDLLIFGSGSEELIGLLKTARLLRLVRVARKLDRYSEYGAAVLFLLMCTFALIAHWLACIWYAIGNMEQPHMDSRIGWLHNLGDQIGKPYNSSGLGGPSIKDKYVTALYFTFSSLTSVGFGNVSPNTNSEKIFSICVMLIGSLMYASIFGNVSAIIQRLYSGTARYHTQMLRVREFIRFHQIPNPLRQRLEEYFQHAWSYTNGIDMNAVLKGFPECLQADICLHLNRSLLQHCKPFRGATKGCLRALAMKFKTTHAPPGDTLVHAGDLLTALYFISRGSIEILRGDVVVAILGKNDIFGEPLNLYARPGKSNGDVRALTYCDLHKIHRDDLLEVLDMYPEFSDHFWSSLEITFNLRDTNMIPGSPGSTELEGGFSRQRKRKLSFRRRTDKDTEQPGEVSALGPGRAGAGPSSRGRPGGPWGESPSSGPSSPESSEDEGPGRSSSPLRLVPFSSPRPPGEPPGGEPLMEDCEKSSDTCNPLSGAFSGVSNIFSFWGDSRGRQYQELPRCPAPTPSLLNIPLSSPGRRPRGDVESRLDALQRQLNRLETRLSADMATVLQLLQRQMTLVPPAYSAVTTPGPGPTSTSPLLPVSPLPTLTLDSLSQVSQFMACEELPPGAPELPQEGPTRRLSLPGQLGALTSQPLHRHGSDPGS

SMILES	hERG current change (%, negative = inhibition) at 1uM [%]
O=c1ncc(F)c[nH]1	14
CC1(c2ccc3c(c2)OCO3)NC(=O)N(CC(=O)c2ccc[nH]2)C1=O (stereo not shown)	10.2
Cc1ccc2c(n1)sc1c(-c3ccccc3)c(C#N)c(N)nc12	6.13
Cn1c(NC(=S)Nc2ccccc2)nc2ccccc21	9.88
O=C(Nc1nc(-c2ccccc2)cs1)c1cccc([N+](=O)[O-])c1C(=O)O	-4.94
CCc1nnc(NC(=O)CCC(=O)N2CCN(Cc3ccccc3)CC2)s1	17.3
O=C(NCCCn1cccn1)C1CCC(=O)N(CCc2ccccc2)C1 (stereo not shown)	2.8
Cc1nc(C(=O)N2CCc3c([nH]c4ccccc34)C2c2cc(F)ccc2F)cs1 (stereo not shown)	10.2
Cc1ccccc1N(C(=O)c1snc(C(N)=O)c1N)C(C(=O)NCC1CCCO1)c1ccc(N(C)C)cc1 (stereo not shown)	9.28
O=C(COc1ncnc2ccc(Br)cc12)NCc1ccco1	12.3
Cn1cccc1Cc1nnc(SCC(=O)NCC2CCCO2)n1CCc1ccccc1 (stereo not shown)	-4.06
NC(=O)COC(=O)[C@@H]1CC(O)CN1S(=O)(=O)c1ccc2c(c1)OCCO2 (stereo partly shown)	13.8
Cc1ccc(C(=O)Nc2nc(COc3ccccc3)cs2)s1	14.3
Cc1c(-c2ccccc2)nc(N)c(C#N)c1-c1ccco1	9.86
CC(=O)Nc1nonc1NC(=O)CSc1ncn[nH]1	-8.64
NC(=O)c1cc([N+](=O)[O-])ccc1NCc1ccc(C(=O)O)cc1	16.9
CCCc1nc2ccccc2c(C(=O)OCC(=O)c2ccc3c(c2)NC(=O)CO3)c1CC	11.4
COC(=O)[C@H]1[C@H](CCc2ccccc2)NC(=O)N(Cc2ccccc2)[C@@H]1C	3.72
O=P(O)(O)c1ccccc1OCCOCCOCCOCCOc1ccccc1P(=O)(O)O	12.7
NC(=O)C1CCN(C(=S)c2ccc(-c3ccc(Br)cc3)o2)CC1	-0.415
CC(=O)Nc1ccc(S(=O)(=O)N(C)CC(=O)OCC(=O)c2cc(C)n(-c3ccc4c(c3)OCO4)c2C)cc1	8.05
CCOC(=O)C(C)Sc1nnc(-c2c[nH]c3ccccc23)n1C (stereo not shown)	12.4
COc1c(Cl)cc(Cl)cc1CNCCNCC(C)O.Cl (stereo not shown)	5.98

SMILES	hERG current change (%, negative = inhibition) at 1uM [%]
CCOC(=O)c1cccc(NC(=S)NCc2ccc(C)cc2)c1	8.34
Cc1cccc(NC(=O)Cn2c(=O)oc3ccccc32)n1	10.5
COc1ccc(Cc2nnc(SCC(=O)NCC3CCCO3)o2)cc1 (stereo not shown)	19
COc1ccc(OCCC(=O)Nc2ccccc2)cc1	14.4
N#Cc1cc2c(nc1SCC(=O)Nc1sc3c(c1C#N)CCC3)CCCC2	11.7
CC1CN(c2snnc2C=C2C(=O)OC(C)(C)OC2=O)CC(C)O1 (stereo not shown)	8.26
N#C/C(=C\c1ccc(Cl)cc1)c1nc(-c2ccco2)cs1	20
CN(C)CCN(C(=O)/C=C/c1cccs1)c1nc2c(F)cc(F)cc2s1.Cl	1.5
CCC(C)(C)n1nnnc1C(c1cccnc1)N1CCCC(C)C1 (stereo not shown)	9.87
O=C(/C=C/c1cccc(Br)c1)c1ccc2c(c1)OCO2	11
COc1cc2c(c(OC)c1OC)-c1c(cc3c(c1O)OCO3)C[C@@H](C)[C@@H](C)C2	3.97
O=C(c1ccc2c(c1)OCO2)N1CCN(c2ccccc2)CC1	-0.777
COc1ccc(-n2c(C)cc(C(=O)CN3CCCCC3)c2C)cc1	2.5
CC(C)CC1(C)NC(=O)N(CC(=O)N2C(C)CCCC2C)C1=O (stereo not shown)	6.04
Cn1ccnc1SCC(=O)Nc1cccc(O)c1	1.9
NC(=O)COc1ccc(NS(=O)(=O)Cc2ccccc2)cc1	19.2
O=C(CSc1ccc(-c2ccccn2)nn1)Nc1cccc(F)c1	11.1
CC(C)c1ccc(S(=O)(=O)Nc2ccc(N3CCOCC3)cc2)cc1	11.8
COc1ccc(CCN(Cc2nc3ccccc3c(=O)[nH]2)C(=O)c2ccco2)cc1OC	9.1
COc1ccc2cc(Br)ccc2c1CC(=O)NC(C)C	14.5
O=C(NNC(=O)c1ccc2c(c1)OCO2)NC12CC3CC(CC(C3)C1)C2	3.5
CC(C)COCc1ccc(O)c2ncccc12	21.6
c1ccc(Cn2cc(CSc3ccccc3)nn2)cc1	5.07

SMILES	hERG current change (%, negative = inhibition) at 1uM [%]
CO/N=C/NC(=O)Cc1cn(-c2ncc(C(F)(F)F)cc2Cl)c2ccccc12	8.29
O=C1N[C@@H](Cc2cn(S(=O)(=O)c3c(F)c(F)c(F)c(F)c3F)c3ccccc23)C(=O)N[C@H]1Cc1ccccc1	10.7
Cc1oc(C(C)(C)C)cc1C(=O)Nc1ccc2c(c1)OCCO2	10.4
COc1ccccc1OCc1ccc(C(=O)N2CCCCC2)o1	7.6
O=C(CN1CCN(Cc2ccccc2)CC1)N1CCCc2c1c(=O)oc1ccc(O)cc21	-8.78
O=C(CN(Cc1ccco1)C(=O)c1nsc(Cl)c1Cl)NC1CCCCC1	18.3
Cc1ccccc1NC(=O)n1ncc2cc(Cl)ccc21	19.7
COc1ccc(CCNC(=O)CCC(=O)NC2CCCC(C)C2C)cc1OC (stereo not shown)	18.3
CC(C)(C)n1nnnc1CN(Cc1cccnc1)Cc1ccccc1Cl	-18.2
O=C(CSc1nnc(-c2ccccc2Br)o1)Nc1cccc2ccccc12	3.82
COc1ccccc1C(=O)Nc1ccc(S(=O)(=O)N2CCN(C)CC2)cc1	7.4
COCC(C)NC(=O)c1cc(-c2ccc(O)cc2)on1 (stereo not shown)	11
Cc1ccc(F)cc1NC(=O)CSc1ncccn1	12.9
C=CCN1C(=O)C(Cc2ccc(F)cc2)S/C1=N/N=C/c1ccco1 (stereo not shown)	13.8
Cc1csc(NC(=O)c2ccc(C)c(S(=O)(=O)N3CCOCC3)c2)n1	11.1
COc1ccc(S(=O)(=O)N(CCc2ccccc2)CC(=O)N/N=C/c2ccc3c(c2)OCO3)cc1	1.44
COc1cc(OC)c(OC)cc1/C=N/N(C)c1ccccc1	16.2
COc1cc2c(cc1OC)CN(C(=O)c1ccc(S(=O)(=O)N3CCCCC3)cc1)CC2	14.1
COc1cccc(CC2(CO)CCCN(Cc3cn(C)c4ccccc34)C2)c1 (stereo not shown)	-54.8
CCOC(=O)c1c(NC(=O)c2ccoc2C)sc(C)c1C	11.5
CC(C)C(C(=O)NCc1ccco1)N(C(=O)CNS(=O)(=O)c1ccccc1)c1ccccc1 (stereo not shown)	13.9
COCCNC(=O)c1oc2ccc3c(c2c1C)C(O)CC(C)(C)O3 (stereo not shown)	12.9
CCN(CC)CCNC(=O)NC(=O)c1ccc(Cl)cc1	-11.7

SMILES	hERG current change (%, negative = inhibition) at 1uM [%]
COc1ccc(CCC(=O)Nc2ccc(Br)cn2)cc1	2.97
N/C(=N\OC(=O)c1ccc([N+](=O)[O-])cc1)c1ccccn1	-7.93
CC(=O)c1ccc(OCCCC(=O)N2CCN(S(=O)(=O)c3ccc(C)cc3C)CC2)cc1	-0.226
O=C(CSc1ccccc1)NCc1ccccn1	3.36
CC1(C)Cc2c(cnn2-c2ccccc2)-c2c1c1ccccc1n2CC(O)CBr (stereo not shown)	7.39
Cc1nc(N2CCCCC2)sc1C(=O)c1ccc(Cl)c([N+](=O)[O-])c1	15.6
CC(C)CNC(=S)NC(=O)c1ccccc1Cl	5.66
CN(CC(=O)NC(=O)NCc1ccccc1)Cc1ccc(Cl)cc1	14.5
CCOC(=O)C1(CCOc2ccccc2)CCN(Cc2cc(OC)c(O)c(OC)c2)CC1	-66.6
Cc1ccc(C)c(S(=O)(=O)N2CCN(Cc3ccc(O)c4ncccc34)CC2)c1	14.6
Cc1nn(C)cc1CNC(=O)c1cccc(F)c1	8.64
COC(=O)N[C@H](CC(C)=O)c1cccc(C(F)(F)F)c1	17.9
CCCS(=O)(=O)N1CCCC(C(=O)NCC2CCCO2)C1 (stereo not shown)	5.97
NS(=O)(=O)c1cccc(NC(=O)COC(=O)/C=C/c2ccco2)c1	7.3
COc1ccc(S(=O)(=O)N2CCCC2)cc1NC(=O)c1ccccc1F	20.6
Cn1c(CO)cnc1SCc1c(Cl)cccc1Cl	6.9
CSC[C@@H]1NC(=S)N(c2ccc(C)cc2)C1=O	6.69
Cc1noc(C)c1C(=O)N(C)CC(=O)Nc1ccc(F)c(F)c1F	2.21
O=C(CCSc1ccccc1)NNC(=O)c1ccccc1F	14
Cc1ccc(C(=O)COC(=O)CNC(=O)c2ccco2)cc1	13.3
CC(Sc1ccccc1)C(=O)NN=C1CCN(C)CC1 (stereo not shown)	12
COC(=O)CCC(=O)OC1(C)C(=O)C2=CN(C3CCCC3)C(c3ccc(OC)cc3)=CC2=C(Br)C1=O (stereo not shown)	-16.8
